Data: the supplement of paper PMC10126150
Sequences with one replicate were seen in a single cluster, so their values are uncertain.

Tested on: ATP
Assay: switch fluorescence ratio, 500 uM ATP over buffer (Cy3 cluster intensity, sum of 5 cycles each) (fold (ratio)); higher = stronger signal-on switching upon ATP binding; sequences stand for … in TCGTCGGCAGCGTCAGATGTGTATAAGAGACAGTTTTTTTTTTTTTTTTTTTTTTTTT…TC
Conditions: aptamer strand: ATP DNA aptamer (quencher-CACCTGGGGGAGTATTGCGGAGGAAGG + anchor), 100 nM annealed; ATP concentration: 500 uM; one replicate
Procedure, shortened: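 The fluorescence ratio divides summed target-cycle Cy3 intensity by summed buffer-cycle Cy3 intensity for each cluster and is averaged per switch-domain sequence. Cy3-labelled switching-strand clusters on a modified Illumina MiSeq flow-cell were annealed to 100 nM quencher-labelled ATP aptamer, then imaged in selection buffer and again after 15 min with 500 uM ATP at 22 °C. Five such cycles were run, with NaOH stripping and re-annealing between them, and clusters outside 100-1000 RFU were excluded.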
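Also: ATP exposure 15 min at 22 °C before imaging.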

Sequence | switch fluorescence ratio
TTCCTTTGGC | 0.983
TGACGCGAAG | 1.03
GCGGAGCTAG | 1.08
GTGTGCCGTA | 0.983
TAAATCAAGT | 0.978
GCTGTAGTTA | 1.02
AATACTTCCT | 1.93
TATTGAGCAG | 1.01
GGTCACTTT | 0.993
ATAGTTAGAT | 0.988
ATGTAGCT | 1.01
GCAATCATTG | 1
TATGGTTATT | 0.996
AGTCGACATC | 0.987
AGCCTGTACT | 1.07
TTGGACCGTC | 1.03
AACATTTATC | 1.01
TGGACTAGTA | 0.982
ATAAGGTGCA | 1.06
CCTCCCTTA | 5.31
CACCAACTGT | 1.15
CCGGAGAAGG | 2.13
ACCCCCGCCA | 2.01
ACGGGTGGT | 1.02
CCGTTTGCTC | 1.84
GGCTCGTCTA | 0.98

Sequence | switch fluorescence ratio
AGCTCCAGGG | 1.22
ATGCATATGC | 1.07
ATTCGATTT | 1.03
TATAGTGTGG | 0.972
ATCGCCCCTT | 1.08
AGCGTTTCCA | 0.981
TGCGCACCTT | 1.02
ACAGTGTCG | 1.02
TTTGGCATCC | 1.06
TTTTCACCCC | 1.13
TTTTATACAT | 1.08
GGTGTTCGC | 0.957
GCGTGTGCTT | 0.957
AAGGATCCAT | 0.984
GATCGGTTTG | 0.982
ATCGAGGATG | 0.976
TTGTGTATAC | 1.02
CGTCGTCCGG | 1.02
CAATTCGTCC | 1.01
GGGTCACTGT | 0.973
TAGACTTGGA | 1.03
ATGATAATCC | 1.04
AGTGATGAGC | 1.01
TCTGTGTAGA | 1.02
ATGTTCAGCT | 1.03
TGTTCTGATG | 0.984

Sequence | switch fluorescence ratio
GCTGTATTTT | 1.01
TCATCCTTCC | 3.21
AGCTAGGGTT | 1.01
TCAATATAGG | 0.977
AGCCATTGTG | 0.986
CGTATCGTTG | 0.985
AGATGGTATT | 0.98
CGTTTGTAAG | 1.03
TTTTTCGGAG | 1.05
AATCTCCAGC | 1.1
TTGGGACGCT | 0.975
AAAGGGAATG | 1.01
ATTCGGGCG | 0.905
GGTGGACGCG | 1
GTTACGGAAC | 1.03
GGTTGCAAGG | 0.975
TAATACAGTT | 0.986
TCGTCATGGT | 1.05
TCTGCGATTT | 1.09
TTTGGCAGCG | 0.97
CTTCCCCGTT | 3.14
AATCGGTAGT | 1.02
GCAACGGATC | 1
AGATTAGGGC | 0.982
GCAAGATCCG | 1.12
AAACTCGTAC | 1.17

Sequence | switch fluorescence ratio
CAAGTTGCGT | 0.948
AGCAGGACGC | 1.13
TAGTCATAAT | 1
AATTTGGAGT | 1.01
GCAACGCTG | 0.985
ATGTGTGGAC | 1.04
TTCACCGTGA | 1.35
CTAAATCCGA | 1.06
TGTAAGTTGC | 0.965
CGTAAAGTAT | 1.01
CAACAGCGTT | 0.975
CGCAAATGTG | 1.31
TGCCTATGG | 1.01
GAGGGATTTA | 1.03
CGCGGCCTG | 0.972
GGTTAGCTCT | 0.998
GGTTACCTCG | 1.02
GCTGGAATCT | 1.02
TAACACCGTT | 0.992
TGGGCCGCTG | 0.989
GATTGGAAGG | 0.986
GGTTCTGTGC | 0.998
AGAATGCACT | 0.974
TGACCCGGGG | 1.01
GCTCGGTTCT | 0.982
TGCGGAGAGC | 1.07

Sequence | switch fluorescence ratio
AGTTCACTGC | 1.03
CTCAAACCCT | 1.08
ATAGTTCTAG | 1.01
ATTGTCGACG | 1.03
AGGGCCAATA | 1.09
CAGTTCGAGA | 1.03
TAGTGGGTCG | 0.971
GCCACCCGCG | 1.2
GATTTTTGAT | 0.987
TTACGCATAA | 2.85
ATTACAGGCT | 1
CAGATTGACT | 0.981
CGAGGAGATT | 1.01
TAGGGCTTTT | 0.993
TTTTCGTTAT | 0.988
ATATGTCATC | 1.09
AGTCTCTGCG | 1.13
CCCACCCTAG | 1.05
TTAAGTTCTG | 0.987
ACCGCCTCTG | 1.78
CCTTTAAGAT | 1.06
AGGTGCGTAG | 0.979
AGGAATTAGC | 1.05
GAGGGGCATA | 0.992
TCTTAGGCTA | 1.03
TTAACGCGGG | 0.973

Sequence | switch fluorescence ratio
TGTTTGGCCC | 0.945
CTGTTTAAAC | 0.966
GATCTAGTAC | 1.03
AACTCGGCTG | 0.969
TAATGTCCGG | 1.01
TGGACAATT | 1.02
TCGCGCTGTG | 1.01
TCCCCAAACC | 1.13
ATCGTGAACT | 1.01
TTAGACTAAC | 1.02
AACGGTGGGA | 1
TGTTTTCTAA | 1.01
AATAATATC | 1.03
AATAGCGGTT | 1
GCCCTGTAAC | 1.05
CTTCATGAGT | 1.28
ATAAAGTAGC | 1.02
CGGTGGAAGG | 1.03
AGAATAACTA | 0.984
AATTTAACG | 0.996
CTAAGTAGTC | 1.01
CGACGTCCCG | 0.926
GCCAGATGTT | 0.953
